{"source": "PubChem BioAssay AID485294", "about": "(National Center for Advancing Translational Sciences (NCATS), 2010)", "note": "Screen size: about 370,000 compounds; about 150 (0.041%) were called active. The shares of active, inactive and inconclusive entries below differ from those in the screen. The call rests on the fitted dose curve; in most records, active means well fitted inhibition curve with a large enough effect; inconclusive means small, poorly fitted or top-dose-only effect; inactive means flat fitted curve, though single readings scatter. Potencies of inconclusive entries are left out as doubtful fits. Potency means the concentration at half of the fitted maximal effect; tags describe the fitted curve by direction and shape.", "data": [{"target": "Beta-lactamase (Escherichia coli (strain K12)) (UniProt P00811)", "sequence (P00811 whole entry, looked up)": "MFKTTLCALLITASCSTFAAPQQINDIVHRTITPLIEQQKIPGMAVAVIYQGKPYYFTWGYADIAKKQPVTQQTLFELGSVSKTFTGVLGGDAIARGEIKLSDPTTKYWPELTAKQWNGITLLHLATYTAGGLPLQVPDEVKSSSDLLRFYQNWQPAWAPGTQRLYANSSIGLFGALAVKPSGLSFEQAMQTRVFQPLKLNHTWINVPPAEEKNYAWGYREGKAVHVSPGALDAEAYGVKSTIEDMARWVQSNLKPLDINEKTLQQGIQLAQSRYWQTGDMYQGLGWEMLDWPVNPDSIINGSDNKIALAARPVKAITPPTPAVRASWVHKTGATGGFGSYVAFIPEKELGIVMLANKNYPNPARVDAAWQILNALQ", "assay": "qHTS Inhibitors of AmpC Beta-Lactamase (assay with detergent); further: nearly all actives have a fitted effect of over 25% in size", "conditions": "AmpC hydrolysis of nitrocefin, absorbance 480 nm, 0.01% Triton; series mostly up to 114 µM", "summary_of_the_method": "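20 mM phosphate pH 7.0 + 0.01% (detergent screen) or 0.0001% Triton X-100; 5.3 nM AmpC reagent; cpd preinc 15 min RT; nitrocefin (800 uM stock) to start; A480 q20 s × 4 min; Activity was normalised to no-enzyme and no-compound control wells.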", "values": [{"smiles": "Cn1nnnc1SCCCNCc1ccc(-c2ccc(Br)cc2)o1", "Potency": "inactive"}, {"smiles": "CCOc1ccccc1OCC(=O)OCC(=O)c1c(C)[nH]c2ccccc12", "Potency": "inconclusive [inhibitor, partial curve, poor fit]"}, {"smiles": "O=C(Nc1cccc(NC(=O)c2ccco2)c1)c1ccc2c(c1)OCCO2", "Potency": "inconclusive [inhibitor, single point]"}, {"smiles": "CCc1c(C)nc2c(-c3ccccc3)c(C)[nH]n2c1=O", "Potency": "inactive"}, {"smiles": "Cc1ccc(C23CC4CC(CC(C(=O)NC(C)C)(C4)C2)C3)cc1", "Potency": "inactive"}, {"smiles": "O=C(NCC1CCN(Cc2ccc(F)cc2)CC1)C1CCCN(c2ncnc3c2nc2n3CCCCC2)C1", "note": "(stereo not drawn)", "Potency": "inactive"}, {"smiles": "CCCCC(=O)N(CCOC)c1nnc(-c2ccc(OC)cc2)s1", "Potency": "inconclusive [inhibitor, full curve, poor fit]"}, {"smiles": "CC(=O)Nc1ccc(NCC(=O)c2ccccc2)cc1", "Potency": "inconclusive [inhibitor, full curve]"}, {"smiles": "CC(=O)c1cccc(S(=O)(=O)N(CCCO)Cc2cc3ccc(C)cc3[nH]c2=O)c1", "Potency": "inconclusive [inhibitor, partial curve, poor fit]"}, {"smiles": "C/C(=N\\NC(=O)c1ccc(-n2cnnn2)cc1)c1ccc(C)cc1", "Potency": "inconclusive [inhibitor, full curve, poor fit]"}, {"smiles": "C[C@]12CC[C@@H]3c4ccc(OC(=O)c5ccccc5)cc4CC[C@H]3[C@@H]1CC[C@@H]2O", "Potency": "inconclusive [inhibitor, partial curve, poor fit]"}, {"smiles": "CCSC1=N/C(=C\\c2ccccc2)C(=O)N1", "Potency": "inconclusive [inhibitor, partial curve, poor fit]"}, {"smiles": "N#CNC1=NCN(CCc2ccccc2)CN1", "Potency": "inconclusive [inhibitor, partial curve, poor fit]"}, {"smiles": "CN(C(=O)COC(=O)C1CCN(S(=O)(=O)c2c(Cl)cccc2Cl)CC1)c1ccccc1", "Potency": "inconclusive [inhibitor, full curve, poor fit]"}, {"smiles": "CC1(C)C(=O)N(OCc2ccccc2)C(C)(C)C(=O)N1OCc1ccccc1", "Potency": "inconclusive [inhibitor, single point]"}, {"smiles": "Cc1ccccc1OC(=O)n1c(=S)oc2cc(Cl)ccc21", "Potency": "inactive"}, {"smiles": "COc1ccc(C(=O)Nc2ccccc2C(=O)OCc2cc(=O)n3c4c(sc3n2)CCCC4)cc1", "Potency": "inactive"}, {"smiles": "Cc1ccc(CNc2ccc3c(c2)OCO3)c(C)c1", "Potency": "inactive"}, {"smiles": "COc1cc(-c2nc(-c3ccc(Br)o3)no2)cc(OC)c1OC", "Potency": "inconclusive [inhibitor, full curve, poor fit]"}, {"smiles": "Cc1nc2c(c(C)c1CCC(=O)Nc1cccc(C(F)(F)F)c1)c(=O)n(C)c(=O)n2C", "Potency": "inactive"}, {"smiles": "O=C(c1ccccc1)N1CCN(CCc2ccccc2)CC1", "Potency": "inactive"}, {"smiles": "Nc1ccc(C(=O)OCC(=O)NC(=O)c2ccccc2)cc1[N+](=O)[O-]", "Potency": "inconclusive [inhibitor, full curve]"}, {"smiles": "CCCC(c1c(C)n(C)n(-c2ccccc2)c1=O)c1c(C)n(C)n(-c2ccccc2)c1=O", "Potency": "inconclusive [inhibitor, partial curve]"}, {"smiles": "CC1CCc2nc(N)c(C#N)c(-c3cccnc3)c2C1", "note": "(stereo not drawn)", "Potency": "inconclusive [inhibitor, full curve, poor fit]"}, {"smiles": "Cc1ccc(NC(=O)NC2CC(=O)N(c3ccc4c(c3)OCCO4)C2)cc1C", "note": "(stereo not drawn)", "Potency": "inconclusive [inhibitor, partial curve, poor fit]"}, {"smiles": "CCN(CC)S(=O)(=O)c1ccc2c(c1)N(CC(=O)NCCc1ccc(OC)c(OC)c1)C(=O)CO2", "Potency": "inactive"}, {"smiles": "CCCCN1C(=O)C(C)=C(C)C1OCCc1ccc(OC)c(OC)c1", "note": "(stereo not drawn)", "Potency": "inconclusive [inhibitor, partial curve, poor fit]"}, {"smiles": "COCC(C)N1CCC(Oc2ccc(C(=O)NCc3ccccn3)cc2)CC1", "note": "(stereo not drawn)", "Potency": "inconclusive [inhibitor, full curve]"}, {"smiles": "Cc1cc(C(=O)N/N=C/c2ccc([N+](=O)[O-])s2)n[nH]1", "Potency": "inactive"}, {"smiles": "Cn1c(=O)c2c(SCc3cccnc3)nc(C3CC3)nc2n(C)c1=O", "Potency": "inconclusive [inhibitor, full curve, poor fit]"}, {"smiles": "CN(C)S(=O)(=O)c1ccc(N2C(=O)CC2(/C=C/c2ccccc2)C(=O)NC2CCCC2)cc1", "note": "(stereo not drawn)", "Potency": "inconclusive [inhibitor, full curve, poor fit]"}, {"smiles": "COC1(OC)C(/C=C/c2ccc(Cl)cc2)C(C#N)(C#N)C1(OC)OC", "note": "(stereo not drawn)", "Potency": "inactive"}, {"smiles": "COc1ccccc1C(=O)Nc1ccc(OCC(=O)N2C(C)CCCC2C)cc1", "note": "(stereo not drawn)", "Potency": "inconclusive [inhibitor, partial curve, poor fit]"}, {"smiles": "COc1cc2nc(CN3C(=O)c4ccccc4C3=O)oc(=O)c2cc1OC", "Potency": "inconclusive [inhibitor, partial curve, poor fit]"}, {"smiles": "Cc1ccc(NC(=O)C(Cc2ccccc2)NS(=O)(=O)c2ccc3c(c2)oc(=O)n3C)c(Cl)c1", "note": "(stereo not drawn)", "Potency": "inactive"}, {"smiles": "O=C(/C=C/c1ccco1)NC(=S)Nc1ccccc1O", "Potency": "inactive"}, {"smiles": "Cc1ccc(-c2nnc(Nc3ccc(Br)cc3)c3ccccc23)cc1S(=O)(=O)N1CCOCC1", "Potency": "inactive"}, {"smiles": "COc1ccccc1NC(=O)COc1ccc2ccccc2c1", "Potency": "inconclusive [inhibitor, full curve, poor fit]"}, {"smiles": "CCOCCCNC(=O)C(NC(=O)c1ccc(NC(C)=O)cc1)c1ccccc1", "note": "(stereo not drawn)", "Potency": "inconclusive [inhibitor, partial curve, poor fit]"}, {"smiles": "O=C(Nc1ccccc1-c1ccccc1)C1CCC1", "Potency": "inactive"}, {"smiles": "COc1cc(-c2nc(-c3ccc(NC(=O)c4ccc(Br)o4)cc3)no2)cc(OC)c1OC", "Potency": "inconclusive [inhibitor, single point]"}, {"smiles": "CCOC(=O)N1CCN(C(=O)c2ccc(CS(=O)Cc3ccccc3Cl)o2)CC1", "note": "(stereo not drawn)", "Potency": "inactive"}, {"smiles": "CCCCN(C(=O)CSCC(=O)Nc1cccc(C)c1)c1c(N)n(Cc2ccccc2)c(=O)[nH]c1=O", "Potency": "inconclusive [inhibitor, partial curve]"}, {"smiles": "CC(=O)Nc1ccc(NC(=O)C(C)OC(=O)C2CCN(S(=O)(=O)c3ccccc3C(F)(F)F)CC2)cc1", "note": "(stereo not drawn)", "Potency": "inconclusive [inhibitor, full curve]"}, {"smiles": "NS(=O)(=O)c1ccc(CCNC(=O)COc2ccc3c4c(c(=O)oc3c2)CCC4)cc1", "Potency": "inactive"}, {"smiles": "O=C1c2cccnc2-c2ncccc21", "Potency": "inconclusive [inhibitor, full curve, poor fit]"}, {"smiles": "Cc1ccc(-c2ccc(C(=O)Nc3cccc(F)c3)o2)c2ccccc12", "Potency": "inconclusive [inhibitor, partial curve, poor fit]"}, {"smiles": "N#Cc1c(-c2cccs2)nc(SCC(=O)c2cccs2)[nH]c1=O", "Potency": "inconclusive [inhibitor, full curve, poor fit]"}, {"smiles": "O=S(=O)(Nc1cccc(-c2nc3cccnc3s2)c1)c1ccc2c(c1)OCCO2", "Potency": "inconclusive [inhibitor, full curve]"}, {"smiles": "C(#Cc1ccccc1)CN1CCOCC1", "Potency": "inconclusive [inhibitor, full curve]"}, {"smiles": "O=C(c1cccc(N2C(=O)C3C4C=CC(C4)C3C2=O)c1)N1CCCc2ccccc21", "note": "(stereo not drawn)", "Potency": "inactive"}, {"smiles": "COc1cc(/C=N/NC(=O)c2ccncc2)ccc1OC(C)=O", "Potency": "inconclusive [inhibitor, full curve, poor fit]"}, {"smiles": "O=C(Nc1cc(C(F)(F)F)ccc1Cl)C1CCN(c2nnc(-n3cccc3)s2)CC1", "Potency": "inactive"}, {"smiles": "Clc1ccc(Nc2nc(-c3cccnc3)cs2)cc1", "Potency": "inconclusive [inhibitor, single point]"}, {"smiles": "Cc1ccc2c(c1)N(C(=O)CCC(=O)Nc1ccccc1Cl)CC(C)O2", "note": "(stereo not drawn)", "Potency": "inactive"}, {"smiles": "Cc1ccc2nc(S(=O)(=O)O)[nH]c2c1", "Potency": "inconclusive [inhibitor, partial curve, poor fit]"}, {"smiles": "C=CCn1c(-c2cccc(S(=O)(=O)N3CCOCC3)c2)n[nH]c1=S", "Potency": "inconclusive [inhibitor, partial curve]"}, {"smiles": "O=C(Nc1nnc(C23CC4CC(CC(C4)C2)C3)s1)c1ccc(N2C(=O)CCC2=O)cc1", "Potency": "inconclusive [inhibitor, full curve, poor fit]"}, {"smiles": "Cc1ccc(C(=O)COc2cc(O)c3c(=O)cc(-c4ccccc4)oc3c2)cc1", "Potency": "inconclusive [inhibitor, full curve, poor fit]"}, {"smiles": "COc1nccnc1NS(=O)(=O)c1ccc(NC(=S)NC(=O)c2cccnc2)cc1", "Potency": "inactive"}, {"smiles": "CN(CC(=O)NCc1ccc2c(c1)OCO2)CC(=O)Nc1ccc(F)c(F)c1F", "Potency": "inconclusive [inhibitor, full curve, poor fit]"}, {"smiles": "CSc1nc(S(=O)(=O)c2ccc(C)cc2)c(Cl)s1", "Potency": "inactive"}, {"smiles": "COc1cc(/C=N/c2oc(C)c(C)c2C#N)cc(Br)c1O", "Potency": "inconclusive [inhibitor, full curve, poor fit]"}, {"smiles": "CCN1CCC(N(Cc2cccc(OC)c2)C(=O)Nc2cccc(C(F)(F)F)c2)CC1", "Potency": "inactive"}, {"smiles": "Cc1c(NC(=O)CN2C(=O)NC(CCc3ccccc3)C2=O)c(=O)n(-c2ccccc2)n1C", "note": "(stereo not drawn)", "Potency": "inconclusive [inhibitor, full curve]"}, {"smiles": "CCOC(=O)c1c(NC(=O)c2cc(CC)on2)sc(C)c1C", "Potency": "inactive"}, {"smiles": "COc1cccc(CNC(=O)CN2C(=O)N(c3cc(C)ccc3C)S(=O)(=O)c3ccccc32)c1OC", "Potency": "inactive"}, {"smiles": "NC(=O)c1c(NC(=O)c2cccnc2)sc2c1CCCC2", "Potency": "inconclusive [inhibitor, single point]"}]}]}
